According to the supplement of paper PMC12355420:
Where a name gives a salt, the structure may show the parent alone. This is one part of the list. Single values are uncertain, as repeats are few or missing.
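Further: primary screen of an FDA-approved drug library in HeLa reporter cells in 96-well format, CellMask signal normalized to DMSO-treated wells set as 1, under 0.5 deemed highly cytotoxic.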

The compounds below were run on HeLa VPS33A reporter cells (assay: relative cell viability (CellMask signal) vs DMSO (fraction of DMSO); HeLa model of a glycosaminoglycan (GAG) storage disease; KI is knock-in and KO knock-out; SDC1 is syndecan 1; higher = less cytotoxic). Conditions: 50 µM; 24 h.
Compound `COc1cc2ncnc(Nc3ccc(F)c(Cl)c3)c2cc1NC(=O)/C=C/CN1CCCCC1` has a relative cell viability of 0.0126. Compound `COC(=O)Nc1nc2cc(C(=O)c3ccc(F)cc3)ccc2[nH]1` [Flubendazole] has a relative cell viability of 0.118. With `CCN(CC)CCOc1ccc(C(=C(Cl)c2ccccc2)c2ccccc2)cc1` [Clomiphene citrate] the relative cell viability was 0.0328. Work on `Cc1ccc(NC(=O)c2ccc(CN3CCN(C)CC3)cc2)cc1Nc1nc(-c2cccnc2)cs1` [Masitinib (AB1010)] yielded a relative cell viability of 0.00693. `O=C(O)CSc1nnc(Br)n1-c1ccc(C2CC2)c2ccccc12` [Lesinurad] gave a relative cell viability of 0.413. `C[C@H]1[C@H](OC(=O)CCC(=O)O)O[C@@H]2O[C@@]3(C)CC[C@H]4[C@H](C)CC[C@@H]1[C@@]24OO3` [Artesunate] gave a relative cell viability of 0.0224. `CCN(CC)CCCC(C)Nc1c2ccc(Cl)cc2nc2ccc(OC)cc12` (stereo not given) [Quinacrine 2HCl] showed a relative cell viability of 0.00406. With `Cc1c(OCC(F)(F)F)ccnc1C[S@@+]([O-])c1nc2ccccc2[nH]1` [Dexlansoprazole] the relative cell viability was 0.477. `CN1CCN(C2=Nc3ccccc3Oc3ccc(Cl)cc32)CC1` [Loxapine Succinate] showed a relative cell viability of 0.00664. Work on `CN(C)c1ccc(C(=C2C=CC(=[N+](C)C)C=C2)c2ccc(N(C)C)cc2)cc1` [Crystal Violet] yielded a relative cell viability of 0.0133. `Cc1ccc(NC(=O)c2ccc(CN3CCN(C)CC3)cc2)cc1Nc1nccc(-c2cccnc2)n1` [Imatinib Mesylate (STI571)] gave a relative cell viability of 0.00522. `Cc1c(-c2ccc(O)cc2)n(Cc2ccc(OCCN3CCCCCC3)cc2)c2ccc(O)cc12` [Bazedoxifene acetate] gave a relative cell viability of 0.00262. In the case of `CC(=O)OC[C@H]1O[C@@H]([S-])[C@H](OC(C)=O)[C@@H](OC(C)=O)[C@@H]1OC(C)=O.CCP(CC)CC.[Au+]` [Auranofin], the relative cell viability is reported as 0.00366. Compound `O=C(O)c1ccccc1` [Benzoic Acid] has a relative cell viability of 0.403. For `CSc1ccc2c(c1)N(CCC1CCCCN1C)c1ccccc1S2` (stereo not given) [Thioridazine HCl], the relative cell viability was 0.00666. In the case of `CC1(C)CC[C@]2(C(=O)O)CC[C@]3(C)C(=CC[C@@H]4[C@@]5(C)CC[C@H](O)C(C)(C)[C@@H]5CC[C@]43C)[C@@H]2C1` [Oleanolic acid], the relative cell viability is reported as 0.0892. `Cc1ccc(C(=O)N(CCCN)[C@@H](c2nc3cc(Cl)ccc3c(=O)n2Cc2ccccc2)C(C)C)cc1` gave a relative cell viability of 0.00382. With `CCN(CCCc1ccccc1)CCCc1ccccc1` [Alverine Citrate] the relative cell viability was 0.398. With `Cc1cnc(Nc2ccc(OCCN3CCCC3)cc2)nc1Nc1cccc(S(=O)(=O)NC(C)(C)C)c1` the relative cell viability was 0.00559. With `CN1CCN(c2ccc3nc(-c4c(N)c5c(F)cccc5[nH]c4=O)[nH]c3c2)CC1` [Dovitinib (TKI-258, CHIR-258)] the relative cell viability was 0.00956. For `O=C(OCCOCCO)c1ccccc1Nc1cccc(C(F)(F)F)c1` [Etofenamate], the relative cell viability was 0.00335. For `COc1cc(Nc2ncc(F)c(Nc3ccc4c(n3)N(COP(=O)(O)O)C(=O)C(C)(C)O4)n2)cc(OC)c1OC` [R788 disodium], the relative cell viability was 0.201. For `Fc1ccc(C(c2ccc(F)cc2)N2CCN(C/C=C/c3ccccc3)CC2)cc1` [Flunarizine 2HCl], the relative cell viability was 0.0452. Compound `CC(C)C[C@H](NC(=O)[C@H](CCc1ccccc1)NC(=O)CN1CCOCC1)C(=O)N[C@@H](Cc1ccccc1)C(=O)N[C@@H](CC(C)C)C(=O)[C@@]1(C)CO1` [Carfilzomib (PR-171)] has a relative cell viability of 0.0182. Compound `Oc1ccc(O)cc1` [Hydroquinone] has a relative cell viability of 0.0305. Work on `COCC[n+]1c2c(n(Cc3cnccn3)c1C)C(=O)c1ccccc1C2=O` yielded a relative cell viability of 0.00515. With `C=C[C@]1(C)C[C@@H](OC(=O)CSC(C)(C)CNC(=O)[C@H](N)C(C)C)[C@]2(C)[C@H](C)CC[C@]3(CCC(=O)[C@H]32)[C@@H](C)[C@@H]1O` [Valnemulin HCl] the relative cell viability was 0.0115. `CCOC(=O)/C=C(C)/C=C/C=C(C)/C=C/c1c(C)cc(OC)c(C)c1C` [Etretinate] was tested, and the relative cell viability was 0.475. Work on `C[C@@H](NCCCc1cccc(C(F)(F)F)c1)c1cccc2ccccc12` [Cinacalcet HCl] yielded a relative cell viability of 0.0138. `CC1=C[C@H](O)CC(C)(C)[C@H]1/C=C/C(C)=C/C=C/C(C)=C/C=C/C=C(C)/C=C/C=C(C)/C=C/C1=C(C)C[C@@H](O)CC1(C)C` [Lutein] gave a relative cell viability of 0.00501. `OCc1cc([C@@H](O)CNCCCCCCOCCOCc2c(Cl)cccc2Cl)ccc1O` [Vilanterol trifenatate] gave a relative cell viability of 0.00953. Compound `CCN(CC)CCOC(=O)C1(C2CCCCC2)CCCCC1` [Dicyclomine HCl] has a relative cell viability of 0.00852. With `CCS(=O)(=O)N1CC(CC#N)(n2cc(-c3ncnc4[nH]ccc34)cn2)C1` the relative cell viability was 0.267. Work on `CCCCCCCCCCCCCCCCCCOP(=O)([O-])OC1CC[N+](C)(C)CC1` [Perifosine] yielded a relative cell viability of 0.00554. Work on `C=C1C(=O)O[C@@H]2C=C(C)CCC=C(C)CC[C@@H]12` [Costundide*] yielded a relative cell viability of 0.00409. For `CC(=O)N1CCN(c2ccc(OCC3COC(Cn4ccnc4)(c4ccc(Cl)cc4Cl)O3)cc2)CC1` (single isomer, unassigned; (+)) [(+)-Ketoconazole], the relative cell viability was 0.0634. Compound `Clc1ccc(CO/N=C(\Cn2ccnc2)c2ccc(Cl)cc2Cl)c(Cl)c1` [Oxiconazole (nitrate)] has a relative cell viability of 0.00603. `CCN(CC)C(=S)SSC(=S)N(CC)CC` [Disulfiram] showed a relative cell viability of 0.0464. `CC/C=C\C/C=C\C/C=C\C/C=C\C/C=C\C/C=C\CCC(=O)O` [Docosahexaenoic Acid] was tested, and the relative cell viability was 0.325. `Nc1ccc(O)cc1` [4-Aminophenol] gave a relative cell viability of 0.00382.
